Laboratory results reported in publication PMC4336329 (PLoS ONE, 2015).
Among all 310,000 compounds or so, about 2,200 (0.71%) showed an effect of 50% or more. Effects have a minus sign here. This is one part of the list.

target: human ether-à-go-go-related gene (hERG) potassium channel (human, UniProt Q12809); assay: primary screen, population patch clamp on CHO cells stably expressing hERG
Sequence (Q12809 whole entry, looked up): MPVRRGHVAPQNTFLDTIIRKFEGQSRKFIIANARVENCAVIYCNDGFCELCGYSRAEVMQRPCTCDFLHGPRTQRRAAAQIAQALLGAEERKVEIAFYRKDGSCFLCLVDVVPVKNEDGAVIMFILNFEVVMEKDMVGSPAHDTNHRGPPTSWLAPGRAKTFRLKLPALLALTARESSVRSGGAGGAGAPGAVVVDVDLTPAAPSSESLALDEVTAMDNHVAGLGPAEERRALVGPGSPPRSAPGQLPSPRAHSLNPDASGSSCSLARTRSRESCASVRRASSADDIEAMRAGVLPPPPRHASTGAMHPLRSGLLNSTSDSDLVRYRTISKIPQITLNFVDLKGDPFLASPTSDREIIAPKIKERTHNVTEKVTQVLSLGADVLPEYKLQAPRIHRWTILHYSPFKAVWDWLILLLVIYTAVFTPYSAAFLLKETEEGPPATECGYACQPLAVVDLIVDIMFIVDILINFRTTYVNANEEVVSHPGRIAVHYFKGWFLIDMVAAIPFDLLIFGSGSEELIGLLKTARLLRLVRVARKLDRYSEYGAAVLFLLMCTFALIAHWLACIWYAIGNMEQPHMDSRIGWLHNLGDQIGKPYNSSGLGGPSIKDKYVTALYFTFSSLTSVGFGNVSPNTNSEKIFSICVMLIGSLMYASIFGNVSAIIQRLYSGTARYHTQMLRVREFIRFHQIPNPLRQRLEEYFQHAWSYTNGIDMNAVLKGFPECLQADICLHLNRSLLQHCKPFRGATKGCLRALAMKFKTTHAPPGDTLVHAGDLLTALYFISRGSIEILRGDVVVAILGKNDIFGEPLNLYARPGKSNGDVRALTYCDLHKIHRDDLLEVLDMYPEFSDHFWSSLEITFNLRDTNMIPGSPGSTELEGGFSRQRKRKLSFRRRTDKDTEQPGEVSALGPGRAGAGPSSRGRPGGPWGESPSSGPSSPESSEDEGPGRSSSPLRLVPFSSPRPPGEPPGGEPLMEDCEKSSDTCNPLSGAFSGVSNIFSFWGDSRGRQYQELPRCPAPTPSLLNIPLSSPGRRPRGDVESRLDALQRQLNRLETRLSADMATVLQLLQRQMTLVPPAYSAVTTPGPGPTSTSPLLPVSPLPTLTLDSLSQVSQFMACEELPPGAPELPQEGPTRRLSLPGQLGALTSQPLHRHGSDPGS

Going from `O=C(Nc1cc(C(F)(F)F)ccc1N1CCOCC1)C1=COCCO1` to `CCOc1cc(N2CCOCC2)c(OCC)cc1NC(=O)c1cc(C)nc2ccccc12`, the “hERG current change (%, negative = inhibition) at 1uM” value rises from 8.41% to 13%.

First: COc1ccccc1NC(=O)N1CCCC1C(=O)Nc1ccc2c(c1)OCO2 (stereo not shown)
Second: Cc1ccnc(N2CCC(C(=O)Nc3ccc4c(c3)OCO4)CC2)n1
The “hERG current change (%, negative = inhibition) at 1uM” value of the first is lower: 2.76% for the first, 7.12% for the second.

Compared with `O=c1c2ccccc2ncn1Cc1ccco1`, `Cn1c(SCC(=O)NCc2ccco2)nc2ccccc2c1=O` is lower in “hERG current change (%, negative = inhibition) at 1uM” value: -3.55% for the first, -10.3% for the second.

First: O=C(NCCN1CCOCC1)C(=O)NCC1OCCCN1S(=O)(=O)c1cc(F)ccc1F (stereo not shown)
Second: COc1ccc(OC)c(S(=O)(=O)N2CCCC(C(=O)N3CCOCC3)C2)c1 (stereo not shown)
The “hERG current change (%, negative = inhibition) at 1uM” value of the first is lower: 12.9% for the first, 18% for the second.

First: CSc1sccc1/C=C(/C#N)C(=O)c1ccco1
Second: O=C(c1ccco1)c1nc2c(n1O)CCCCC2
The “hERG current change (%, negative = inhibition) at 1uM” value of the first is higher: 5.92% for the first, -5.65% for the second.

Going from `CC(=O)Nc1nnc(CCS(=O)(=O)c2ccc(C)cc2)s1` to `Cc1ccc(S(=O)(=O)N(C)C)cc1NC(=O)COc1ccc(-c2nnco2)cc1`, the “hERG current change (%, negative = inhibition) at 1uM” value rises from 7% to 14.7%.

Compared with `O=C(CNC(=O)c1ccccc1)OCc1nc2ccccc2s1`, `CCCCNC(=O)CSc1nc(Cc2ccccc2)nc2ccccc12` is lower in “hERG current change (%, negative = inhibition) at 1uM” value: 11% for the first, -0.302% for the second.

Compared with `CSc1ccc(C(=O)C2CCCN(C(=O)c3cc(C)n(C)n3)C2)cc1` (stereo not shown), `CCOC(=O)N1CCN(C(=O)c2ccc(N(C)S(C)(=O)=O)cc2)CC1` is higher in “hERG current change (%, negative = inhibition) at 1uM” value: 9.61% for the first, 14.1% for the second.

Going from `N#CCCN(C(=O)COC(=O)c1ccc2c(=O)n3c(nc2c1)CCC3)c1ccccc1` to `Clc1ccc(C[n+]2cc(-c3ccccc3)n3c2CCC3)cc1Cl.[Cl-]`, the “hERG current change (%, negative = inhibition) at 1uM” value falls from 11.6% to -2.44%.

Going from `COCCCNc1oc(COc2ccc(Cl)cc2Cl)nc1C#N` to `COc1ccc(NC(=O)CCCN2C(=O)CN(C)C2=O)cc1Cl`, the “hERG current change (%, negative = inhibition) at 1uM” value falls from 13.6% to 5.38%.

Compared with `CC(=O)c1ccc(S(=O)(=O)Nc2ccccc2C(=O)NC2CC2)cc1`, `Cc1ccc(S(=O)(=O)N2CCCCC2)cc1NS(=O)(=O)c1cccc(C(=O)O)c1` is lower in “hERG current change (%, negative = inhibition) at 1uM” value: 9.72% for the first, 6.22% for the second.

Going from `CN(Cc1ccco1)C(=O)c1ccc(OC2CCN(Cc3ccccn3)CC2)cc1` to `CC(CNC(=O)c1cc(COc2ccc3ncccc3c2)on1)c1ccccc1` (stereo not shown), the “hERG current change (%, negative = inhibition) at 1uM” value rises from 4.06% to 13.2%.

Going from `COc1ccc(N2C(=NC(=O)C3CCCCC3)SC3CS(=O)(=O)CC32)cc1OC` (stereo not shown) to `COc1cc(C(=O)N2CCN(C(=O)c3ccco3)CC2)c([N+](=O)[O-])cc1OC`, the “hERG current change (%, negative = inhibition) at 1uM” value rises from -8.06% to 14%.

Going from `N#CC1=C(N)N(c2ccccc2)C(c2ccco2)C1(C#N)C#N` (stereo not shown) to `O=C1OCC2=C1C(c1ccccc1)CC(=O)N2c1ccccc1` (stereo not shown), the “hERG current change (%, negative = inhibition) at 1uM” value rises from -4.24% to 7.24%.

Compared with `COc1ccc([C@@H]2[C@@H]3C(=O)N(C(C)(C)C)C(=O)[C@@H]3[C@]3(Cc4ccccc4)C(=O)N(c4cccc(Br)c4)C(=O)N23)cc1`, `CC(C)c1ccccc1-n1c(SCC(=O)c2ccc3c(c2)NC(=O)CO3)nc2ccccc2c1=O` is lower in “hERG current change (%, negative = inhibition) at 1uM” value: 17.3% for the first, 6.71% for the second.

First: O=C(COC(=O)Cc1ccc(Cl)cc1)Nc1c(F)cccc1F
Second: Fc1ccc(CNC(=S)NCc2cccc(Cl)c2)cc1
The “hERG current change (%, negative = inhibition) at 1uM” value of the first is higher: 4.07% for the first, 2.82% for the second.

Going from `c1ccc(Cn2ccnc2SCc2nnc(-c3ccccc3)o2)cc1` to `O=C1NC(c2ccccc2)=NC1(NS(=O)(=O)c1ccccc1)C(F)(F)F` (stereo not shown), the “hERG current change (%, negative = inhibition) at 1uM” value falls from 4.9% to -3.22%.

Going from `O=c1ccnc(Nc2ccc3c(c2)OCCO3)[nH]1` to `CC(C)c1nc(SCC(=O)Nc2ccc3c(c2)OCCO3)c2c(=O)n(C)c(=O)n(C)c2n1`, the “hERG current change (%, negative = inhibition) at 1uM” value rises from 12.3% to 18.9%.

First: CC(C)c1cccc(C(C)C)c1NC(=O)CN1C(=O)NC2(CCCC2)C1=O
Second: COC(=O)C1=C(C)N(CCCC(=O)O)C(=O)NC1c1ccc2c(c1)OCO2 (stereo not shown)
The “hERG current change (%, negative = inhibition) at 1uM” value of the first is higher: 14.1% for the first, 9.04% for the second.

Compared with `O=C(O)CN1CCN(Cc2cccc(Cl)c2)C1=O`, `Cc1oc(-c2cccc(Cl)c2)nc1CN1CCC(C(=O)NCC2CCCO2)CC1` (stereo not shown) is lower in “hERG current change (%, negative = inhibition) at 1uM” value: 25.1% for the first, -31.8% for the second.

Going from `Cc1ccc(S(=O)(=O)N2CCOCC2)cc1NC(=O)COC(=O)c1ccc2c(c1)OCO2` to `Cc1ccc(S(=O)(=O)N2CCc3cc4c(cc3C2C)OCCCO4)cc1` (stereo not shown), the “hERG current change (%, negative = inhibition) at 1uM” value rises from 19% to 21.5%.

First: CC(=O)C1C2c3ccccc3OC1(C)N=c1s/c(=C/c3cnn(C)c3)c(=O)n12 (stereo not shown)
Second: CSc1nc(O)c(C2OC(=O)c3ccccc32)c(=O)[nH]1 (stereo not shown)
The “hERG current change (%, negative = inhibition) at 1uM” value of the first is lower: -9.19% for the first, 14% for the second.

First: COc1ccc(/C=N/Nc2nc(N)cc(Cl)n2)cc1OC
Second: COc1cc(/C=N/Nc2nc(Nc3ccccc3)nc(N3CCOCC3)n2)ccc1OC(=O)c1ccco1
The “hERG current change (%, negative = inhibition) at 1uM” value of the first is lower: 4.21% for the first, 10.5% for the second.

Going from `COc1ccc([C@H]2CC(=O)C=C(c3ccc(OC(F)(F)F)cc3)C2)cc1` to `COc1ccc(C(=O)C(Sc2nnc(C)c(=O)[nH]2)c2ccc(OC)cc2)cc1` (stereo not shown), the “hERG current change (%, negative = inhibition) at 1uM” value falls from 10.9% to 1.35%.

Going from `Cl.Clc1ccc2nc3c(c(-c4ccccc4)c2c1)CNCC3` to `Cc1cc(C(=O)Nc2ccc(Cl)cc2)c2ccccc2n1`, the “hERG current change (%, negative = inhibition) at 1uM” value rises from -0.111% to 8.41%.

Going from `Cc1ccc(C(=O)Nc2cnc3ccccn3c2=O)cc1` to `Cc1ccc(Cn2c(CCC(=O)O)nc3ncccc3c2=O)cc1`, the “hERG current change (%, negative = inhibition) at 1uM” value rises from -16.5% to 15.1%.

Going from `CCOc1ccccc1NC(=O)NCCc1c[nH]c2ccccc12` to `Cc1ccccc1C(=O)NC(=S)Nc1ccccc1[N+](=O)[O-]`, the “hERG current change (%, negative = inhibition) at 1uM” value rises from 11.5% to 16%.

Going from `CC(=O)Nc1ccc(O)cc1[N+](=O)[O-]` to `CCc1sc(C(=O)Nc2ccc(NC(C)=O)cc2)cc1C`, the “hERG current change (%, negative = inhibition) at 1uM” value rises from 7.63% to 14.6%.

First: CCOC(=O)C1CCN(S(=O)(=O)c2ccc3[nH]c(=O)oc3c2)CC1
Second: CCOC(=O)C1CCCN(Cc2nc(Cc3cccc(F)c3)no2)C1 (stereo not shown)
The “hERG current change (%, negative = inhibition) at 1uM” value of the first is lower: 3.58% for the first, 8.74% for the second.

Compared with `COc1ccc(N2CCN(C(=O)CSc3nnc4c5cc(C)ccc5n(C)c4n3)CC2)cc1`, `CCOc1ccc(-c2nc(N)ncc2Oc2ccc(OC)cc2)c(O)c1` is lower in “hERG current change (%, negative = inhibition) at 1uM” value: 9.36% for the first, 7.09% for the second.

First: O=S(=O)(c1ccc(Cl)cc1)N1CCN(CCc2ccncc2)CC1
Second: CC(OC(=O)c1ccc(S(=O)(=O)N2CCCCC2)cc1)C(=O)Nc1ccc(C(N)=O)cc1 (stereo not shown)
The “hERG current change (%, negative = inhibition) at 1uM” value of the first is lower: -14.5% for the first, 9.21% for the second.

Going from `O=C1CC(=O)N(Cc2ccccc2)C(=O)N1CCCCCCN1C(=O)CC(=O)N(Cc2ccccc2)C1=O` to `COCCNC(=O)CSc1nnc(CCCN2C(=O)c3cccc4cccc(c34)C2=O)n1-c1ccccc1`, the “hERG current change (%, negative = inhibition) at 1uM” value falls from 10.8% to 10.3%.

Compared with `CCC(C)NC(=O)/C=C/c1cccs1` (stereo not shown), `CC(/C=N/NC(=O)c1nnn(-c2nonc2N)c1C(C)C)=C\c1ccco1` is lower in “hERG current change (%, negative = inhibition) at 1uM” value: 11.3% for the first, 10.7% for the second.

Compared with `CCCc1n[nH]c2c1/C(=N/O)CC(c1ccccc1)C2` (stereo not shown), `CCC(CO)NCc1ccc(OCC(O)c2ccccc2)c(OC)c1.Cl` (stereo not shown) is higher in “hERG current change (%, negative = inhibition) at 1uM” value: 3.59% for the first, 14% for the second.

First: CN=C1SC(C(=O)O)CC(=O)N1C (stereo not shown)
Second: CC(=O)Nc1ccccc1OCC(=O)NC1CCCCC1C (stereo not shown)
The “hERG current change (%, negative = inhibition) at 1uM” value of the first is higher: 13.8% for the first, 9.83% for the second.

First: CCOC(=O)N1CCN(C(=O)c2cc(C)no2)CC1
Second: CCc1ccc(N(CC(=O)NC2CCCC2)C(=O)CCC(=O)Nc2cc(C)on2)cc1
The “hERG current change (%, negative = inhibition) at 1uM” value of the first is higher: 14.1% for the first, -10.2% for the second.

Compared with `Nn1c(SCC(=O)NC2CCCC2)nnc1-c1ccccc1F`, `O=C(COC(=O)C12CC3CC(CC(C3)C1)C2)Nc1ccccc1F` is higher in “hERG current change (%, negative = inhibition) at 1uM” value: 9.32% for the first, 18% for the second.

Compared with `COc1cccc(CSc2nc3sc(C)c(C)c3c(=O)n2Cc2ccco2)c1`, `COCCCn1c(=O)c2sccc2n(Cc2ccc(C)cc2)c1=O` is higher in “hERG current change (%, negative = inhibition) at 1uM” value: 9.03% for the first, 21.2% for the second.

Compared with `CN(C(=O)Cc1ccc2c(c1)OCO2)C1CCCN(Cc2ccccc2F)C1` (stereo not shown), `O=C(CSc1ncccn1)N/N=C/c1ccc2c(c1)OCO2` is lower in “hERG current change (%, negative = inhibition) at 1uM” value: 8.49% for the first, 1.72% for the second.

Going from `CCN(CC)S(=O)(=O)c1ccc(NC(=O)c2cc(C(=O)OC)cc([N+](=O)[O-])c2)cc1` to `Cc1nn(Cc2ccc(Cl)cc2Cl)c(Cl)c1C(=O)Nc1ccc(OC(F)F)cc1`, the “hERG current change (%, negative = inhibition) at 1uM” value falls from 7.16% to 3.09%.

Compared with `Clc1cccc(Cl)c1/C=C/c1nc2ccccc2[nH]1`, `CC(NC(=S)Nc1ccccc1)C1COc2ccccc2O1` (stereo not shown) is higher in “hERG current change (%, negative = inhibition) at 1uM” value: -4.05% for the first, 5.61% for the second.

Going from `CC(C)(C)OC(=O)N/N=C\C=C\c1ccc2c(c1)OCO2` to `Cc1ccc(/C=C2\SC(=S)N(CCC(=O)Nc3ccc(O)cc3)C2=O)cc1`, the “hERG current change (%, negative = inhibition) at 1uM” value falls from 11.1% to 0.921%.

First: Cc1cc[n+](-c2[nH]c(=O)sc2/C=N/N=C(\[O-])c2ccncc2)cc1
Second: N#Cc1c(-n2ccnc2)cccc1-n1ccnc1
The “hERG current change (%, negative = inhibition) at 1uM” value of the first is lower: -1.23% for the first, 1.46% for the second.

Compared with `CC1(C)CC(=O)C2=C(C1)OC(N)=C(C#N)C2C1CC=CCC1` (stereo not shown), `CCCN(Cc1ccc(N(CC)CC)cc1)CC1CC1` is lower in “hERG current change (%, negative = inhibition) at 1uM” value: 12.9% for the first, 10.3% for the second.
